Assay results published in PMC7311467.
Numbering of substitutions follows the chain as printed. Results are given in words; binding and its absence hold for the method and conditions named. Binding seen in cells or lysates may run through a third protein. Some results given as binding are weak or reduced against the parent protein; the word gives no strength. For some of these results: Tags and fused reporters may be left off the sequences shown.

Amino acid sequences for entries named in this document (tags omitted).
UniProt O60934: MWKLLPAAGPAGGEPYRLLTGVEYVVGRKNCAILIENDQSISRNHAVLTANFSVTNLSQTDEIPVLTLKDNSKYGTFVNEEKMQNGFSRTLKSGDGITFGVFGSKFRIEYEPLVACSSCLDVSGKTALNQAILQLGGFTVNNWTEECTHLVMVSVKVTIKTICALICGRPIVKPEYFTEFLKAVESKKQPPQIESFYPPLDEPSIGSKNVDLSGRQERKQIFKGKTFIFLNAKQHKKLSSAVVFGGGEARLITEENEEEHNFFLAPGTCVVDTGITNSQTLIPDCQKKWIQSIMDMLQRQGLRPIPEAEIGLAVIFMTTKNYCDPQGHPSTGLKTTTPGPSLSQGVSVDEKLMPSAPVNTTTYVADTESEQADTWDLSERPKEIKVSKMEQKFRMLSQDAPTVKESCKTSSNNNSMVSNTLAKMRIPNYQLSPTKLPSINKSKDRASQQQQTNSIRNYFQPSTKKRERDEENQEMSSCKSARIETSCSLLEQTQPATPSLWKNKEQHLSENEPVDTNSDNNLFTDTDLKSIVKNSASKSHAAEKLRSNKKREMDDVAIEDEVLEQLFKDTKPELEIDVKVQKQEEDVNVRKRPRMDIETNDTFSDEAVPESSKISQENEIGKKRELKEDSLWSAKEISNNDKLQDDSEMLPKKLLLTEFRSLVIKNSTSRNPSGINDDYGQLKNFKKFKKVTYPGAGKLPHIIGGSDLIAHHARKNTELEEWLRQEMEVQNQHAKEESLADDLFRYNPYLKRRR

T1: FLAG-hSSB1-K94R (human) (UniProt Q9BQ15)
T1 sequence: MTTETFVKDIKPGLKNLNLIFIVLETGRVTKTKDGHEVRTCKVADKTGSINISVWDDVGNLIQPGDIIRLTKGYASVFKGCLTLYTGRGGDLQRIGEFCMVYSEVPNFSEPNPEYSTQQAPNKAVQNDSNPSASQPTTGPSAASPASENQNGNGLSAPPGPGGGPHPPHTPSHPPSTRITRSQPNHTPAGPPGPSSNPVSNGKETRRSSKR

T2: FLAG-hSSB1-K79R (human) (UniProt Q9BQ15)
T2 sequence: T1 sequence with K79R, R94K

B1: SENP2, endogenous (enzyme, UniProt Q9HC62 1-589)
chain: MYRWLVRILGTIFRFCDRSVPPARALLKRRRSDSTLFSTVDTDEIPAKRPRLDCFIHQVKNSLYNAASLFGFPFQLTTKPMVTSACNGTRNVAPSGEVFSNSSSCELTGSGSWNNMLKLGNKSPNGISDYPKIRVTVTRDQPRRVLPSFGFTLNSEGCNRRPGGRRHSKGNPESSLMWKPQEQAVTEMISEESGKGLRRPHCTVEEGVQKEEREKYRKLLERLKESGHGNSVCPVTSNYHSSQRSQMDTLKTKGWGEEQNHGVKTTQFVPKQYRLVETRGPLCSLRSEKRCSKGKITDTETMVGIRFENESRRGYQLEPDLSEEVSARLRLGSGSNGLLRRKVSIIETKEKNCSGKERDRRTDDLLELTEDMEKEISNALGHGPQDEILSSAFKLRITRGDIQTLKNYHWLNDEVINFYMNLLVERNKKQGYPALHVFSTFFYPKLKSGGYQAVKRWTKGVNLFEQEIILVPIHRKVHWSLVVIDLRKKCLKYLDSMGQKGHRICEILLQYLQDESKTKRNSDLNLLEWTHHSMKPHEIPQQLNGSDCGMFTCKYADYISRDKPITFTQHQMPLFRKKMVWEILHQQLL

How the values were obtained:
FLAG-hSSB1-K94R (human) = molecular target: T1, FLAG-hSSB1-K94R (human); experiment: co-IP; HEK293T transfected with FLAG-hSSB1 plasmids (with HA-SUMO3 in Fig. 5e), with or without 100 μM etoposide for 24 h, ML-792 at the indicated concentrations in Fig. 5e; anti-FLAG IP, western blot for NBS1
[1] = molecular target: FLAG-hSSB1 (human single-stranded DNA-binding protein 1), wild type (human) (UniProt Q9BQ15); experiment: as above
FLAG-hSSB1-K79R (human) = molecular target: T2, FLAG-hSSB1-K79R (human); experiment: as above
[2] = molecular target: hSSB1, endogenous (human (endogenous in HEK293T)) (UniProt Q9BQ15); experiment: co-IP; endogenous proteins: HEK293T RIPA lysate, anti-hSSB1 antibody (IgG as control) 2 h at 4 °C, protein A/G-agarose overnight, four washes with RIPA, western blot

Molecule	binding (FLAG-hSSB1-K94R (human))	binding [1]	binding (FLAG-hSSB1-K79R (human))	binding [2]
NBS1 (from UniProt O60934 1-754)	binds	binds	binds	
B1				binds
